The results in this text go back to ChEMBL document CHEMBL4888484, “Replenishing the malaria drug discovery pipeline: Screening and hit evaluation of the MMV Hit Generation Library 1 (HGL1) against asexual blood stage Plasmodium falciparum ,using a nano luciferase reporter read-out” (2022).

The structures appear in SMILES notation. Screen size: about 150,000 compounds; about 540 (0.36%) showed an effect of 50% or more. The list shows a part of the results.

The test concerns Plasmodium falciparum. The test can be described thus: Primary screen in NF54 nanoGlo assay, in single point, at 2uM, 72h; a lower Z score goes with more inhibition. The class given is functional, Erythrocyte. As to conditions: timepoint 72 hour.
Usually % Inhibition stands for the relative decrease from the control value, in per cent. `CCn1c(CN[C@@H](C)c2ccccc2Cl)nc2cc(S(=O)(=O)N3CCCCC3)ccc21`: the “% Inhibition” value is listed as 30% and the Z score was -3.83.
As to `c1cc2cc(CN(Cc3cscn3)C3CC3)ccc2[nH]1`, the “% Inhibition” value was found to be 13% and the Z score is given as -1.67.
With `CCN(CC(=O)NCc1cccs1)Cc1cc(=O)n(C)c(=O)n1C`, the “% Inhibition” value is on record as -9% and the Z score is listed as 1.81.
As to `CCOC(=O)N1CCN(C(=O)[C@H]2CC23CCN(Cc2cc4ccccc4o2)CC3)CC1`, the “% Inhibition” value is -9% and the Z score is listed as 1.24.
In the case of `CCOC(=O)c1nccn1[C@H]1CCN(Cc2ccccc2)C1`, the “% Inhibition” value was -6% and the Z score is listed as 1.19.
Turning to `COc1ccc(-c2noc(N3CCN(c4ncccn4)CC3)n2)cc1OC`, the “% Inhibition” value is listed as -17% and the Z score was found to be 1.51.
For `O=c1cc(-c2nc([C@H]3CCOC3)no2)[nH]c2ccccc12`, the “% Inhibition” value is -24% and the Z score stood at 3.07.
Taken in the same sequence, the figures for `Cc1noc([C@H]2CCN(Cc3ccco3)C[C@H]2NC(=O)C2CCOCC2)n1` were -9% and 1.21.
`CS(=O)(=O)N(CCN1C(=O)c2ccccc2C1=O)CCN1C(=O)c2ccccc2C1=O`: the “% Inhibition” value is on record as -2% and the Z score was 0.28.
`Cc1cccc2[nH]cc(CCNC(=O)N[C@@H]3CCCC[C@H]3O)c12`: the “% Inhibition” value is given as -4% and the Z score was found to be 0.68.
For the compound `Cc1cc(F)ccc1NS(=O)(=O)c1cc(-c2noc(C(=O)N3CCCCCC3)n2)ccc1C`, the “% Inhibition” value was -5% and the Z score was determined as 0.53.
For `CC(C)(C)OC(=O)NC1(C(=O)O)CC1c1ccccc1` (centres undefined), in that order: -1% and 0.09.
Taken in the same sequence, the figures for `COc1ccc(NC(=O)[C@@H]2Cn3cccc3C(=O)N2)cc1` were -5% and 0.81.
`Cc1ccccc1OC1CN(C(=O)CN2CCC[C@H](O)C2)C1`: the “% Inhibition” value is on record as -12% and the Z score turned out to be 1.06.
Consider `CC(=O)Nc1ccc(S(=O)(=O)n2cc3c(=O)n(C(C)C)c(=O)n(C(C)C)c3n2)cc1`, for which the “% Inhibition” value is given as -1% and the Z score was found to be 0.15.
In the case of `Cc1cnc2c(c1)N(S(=O)(=O)c1ccc(C3CC3)cc1)CCO2`, the “% Inhibition” value stood at 5% and the Z score was -0.98.
Regarding `C[C@@H](Cc1ccc2ccccc2c1)NC(=O)Cn1cnnn1`, the “% Inhibition” value was -13% and the Z score was 2.41.
As to `Cc1nc(N)nc(C)c1CC(=O)N1CCC[C@H](CCc2c(F)cccc2F)C1`, the “% Inhibition” value is 3% and the Z score is given as -0.37.
Taken in the same sequence, the figures for `COc1ccc(CN2C(=O)COC[C@H]2C(=O)N2CCN(c3ccc(OC)cc3)CC2)cc1` were -6% and 0.65.
Take `Cc1ccc(-c2nn(Cc3ccc(Cl)cc3)c3nc(C)cc(C)c23)cc1`: the “% Inhibition” value came out at 0% and the Z score stood at 0.01.
Consider `CN(C)C(=O)CNC1CCCCC1C(C)(C)C` (centres undefined), for which the “% Inhibition” value is listed as -10% and the Z score is reported as 1.83.
Consider `Cc1cnc(C(=O)NC[C@@H](c2ccc(C)o2)N2CCCC2)c(C)c1`, for which the “% Inhibition” value is -1% and the Z score is on record as 0.09.
In the case of `CC(=O)Nc1ccc(S(=O)(=O)N2C[C@@H](F)C[C@H]2C(=O)N2CCc3ccccc32)cc1`, the “% Inhibition” value is -10% and the Z score came to 1.31.
Turning to `COc1cc(C(=O)NC2CCCCC2)ccc1OC1CCN(C(C)=O)CC1`, the “% Inhibition” value was -16% and the Z score is given as 2.35.
For the compound `CCOc1cccc(CNc2ccc(C(=O)N(C)OC)cc2)n1`, the “% Inhibition” value was 6% and the Z score is listed as -0.94.
With `Cc1cc(C(=O)N2C[C@H]3CC[C@@H](C2)N(CC2CC2)C3)n(C)n1`, the “% Inhibition” value is reported as 3% and the Z score is reported as -0.5.
For `Cn1cc(S(=O)(=O)Nc2nc3ccccc3nc2N2CCNC(=O)C2)cn1`, in that order: 1% and -0.19.
As to `OC1CCCCC1N1CCc2sccc2C1` (centres undefined), the “% Inhibition” value is reported as -21% and the Z score turned out to be 2.66.
For the compound `COc1ccc(C(=O)NCCNC(=O)c2nc(Cn3cc(Cl)cn3)no2)cc1OC`, the “% Inhibition” value is recorded as -10% and the Z score is 1.05.
Turning to `COc1cc(C(=O)O)ccc1-c1ccc(C(=O)N2CCCNCC2)cc1`, the “% Inhibition” value is reported as -13% and the Z score was 1.65.
With `Cc1onc(CC(=O)N2CC3(CCC3)C2C2CCCO2)c1C#N` (centres undefined), the “% Inhibition” value is reported as 3% and the Z score was -0.4.
As for `Cc1ccc([C@H](C)Nc2ncnc3[nH]ncc23)o1`, the “% Inhibition” value was 0% and the Z score is -0.02.
Turning to `CC1CCC(NC(=O)N[C@H](C)C2CCCc3ccccc32)CS1(=O)=O` (some centres undefined), the “% Inhibition” value is on record as -4% and the Z score is reported as 0.68.
`Cc1ccc(CCC(=O)Nc2cccc(N(C)S(C)(=O)=O)c2)cc1`: the “% Inhibition” value is -23% and the Z score came to 2.11.
As for `CC1=NN(Cc2ccccc2)C(=O)[C@H]1C(=O)Nc1nccs1`, the “% Inhibition” value is -2% and the Z score amounted to 0.22.
For `CC(C)C(=O)NC[C@H](C)Oc1ccc(F)cc1`, the “% Inhibition” value was found to be 1% and the Z score is given as -0.11.
Taken in the same sequence, the figures for `O=C(O)c1ccc(COc2ccc(CN3CCOC4(CCCC4)C3)cc2)o1` were 4% and -0.78.
For `O=C(CCc1nc(-c2ccc(S(=O)(=O)N3CCOCC3)cc2)no1)Nc1cccc(Cl)c1`, in that order: -4% and 0.46.
Taken in the same sequence, the figures for `NS(=O)(=O)c1ccc(CCNC2CCC(c3ccccc3)C2)cc1` (centres undefined) were -6% and 0.69.
Regarding `Cc1noc(C)c1CN1CC2(CCN(C(=O)c3cnccn3)CC2)CC1=O`, the “% Inhibition” value is on record as -11% and the Z score was found to be 1.69.
For `COCCc1ncnn1C1Cc2ccccc2C1`, in that order: -18% and 1.97.
Turning to `Cc1cc(-c2nc(C3CN4CCCCC4CO3)no2)n[nH]1` (centres undefined), the “% Inhibition” value was -13% and the Z score was found to be 1.82.
